In all, about 52,000 compounds went through this assay and about 1,700 (3.3%) were called active. Cut-off read from the data, not from the text of the source: active = survival mostly below about 52% (no sharp cut-off); inactive = mostly above about 56%. The list shows a part of the results.

This assay deals with Wild type. Nature of the assay: S. aureus survival, RN4220 and DeltatarO strains – OD600, teichoic acid synthesis inhibitors, primary screen (AID 463173). To be noted: S. aureus RN4220 wild type/DeltatarO growth, OD600, 18 h, stronger effect = lower value, screened at 18.75 µg/mL (by protocol).
In the case of `Cc1ccc2c(c1)N(C(=O)N1CCC(C(=O)NC3CCCCCC3)CC1)CC(C)O2` (configuration not stated), the survival is inactive: 85%.

In the case of `COc1ccc(/C=C/C(=O)Nc2sc3c(c2C(N)=O)CCC(C)C3)cc1OC` (configuration not stated), the survival was inactive: 64%. As to `COc1ccc2nc(SCC(=O)NC3CCCCC3C)c(C#N)cc2c1` (configuration not stated), the survival was inactive: 104%. Under `Cc1ccc(-n2ncc3c(N4CCN(C)CC4)ncnc32)cc1Cl` stands inactive: 72%; under `CCOc1ccc(NC(=O)CCS(=O)(=O)c2cccc3nonc23)cc1`, inactive: 80%; under `CNC(=O)c1ccc(Nc2nnc(-c3ccc(C)c(S(=O)(=O)N4CCCCC4)c3)c3ccccc23)cc1`, inactive: 81%. As for `CCOC(=O)c1c(NC(=O)c2cc(C)on2)sc(C)c1C`, the survival is inactive: 71%. Under `Cc1cc(C)cc(OCc2ccc(C(=O)Nc3ccccc3F)o2)c1` stands inactive: 72%. For `COc1ccc(CNC(=O)CCC(=O)N2CC3CCCN3c3ccccc32)c(OC)c1` (configuration not stated), the survival is inactive: 73%.

For `CCc1cccc(NC(=O)CSc2ncccc2C(=O)Oc2ccccc2Cl)c1`, the survival is inactive: 80%. Under `CNC(=O)c1c[nH]c2ccc(S(=O)(=O)Nc3cccc(Cl)c3C)cc2c1=O` stands inactive: 82%. On to `NC(=O)c1cc2ccc(O)cc2oc1=O`, for which the survival is inactive: 104%.

Regarding `Cc1cc(C)c2c(=O)cc(C(=O)Nc3sc4c(c3C(=O)NCc3cccnc3)CCCC4)oc2c1`, the survival was inactive: 85%. `C=CCn1c(=S)[nH]c2ccccc2c1=O`: the survival is inactive: 116%.

In the case of `CC(C)n1c(SCC(=O)Nc2ccc(F)cc2)nc2c(oc3ccccc32)c1=O`, the survival is inactive: 78%. In the case of `CCOc1ccccc1CNC(=O)c1ccc2c(c1)sc1nc(-c3cccc(OC)c3)cn12` it was inactive: 79%; in that of `CC(C)C12CN3CC(C(C)C)(CN(C1)C3c1ccc(OCc3ccccc3)cc1)C2=O` (configuration not stated), inactive: 85%. Under `CCC(Sc1nc2nccnc2c(=O)n1Cc1ccc(OC)cc1)C(=O)NC1CCCCC1` (configuration not stated) stands inactive: 110%. Regarding `CCOc1ccc(-n2c(SCC(=O)Nc3ccc(F)cc3)nc3c([nH]c4ccccc43)c2=O)cc1`, the survival is inactive: 88%. In the case of `COC(=O)c1cc(S(=O)(=O)NCC2CCN(Cc3ccc(C)cc3)CC2)c[nH]1` it was inactive: 133%; in that of `CC(=O)c1cccc(NC(=O)c2ccc(-n3c(C)nnc3C)cc2)c1`, inactive: 67%. Under `CCCC(c1nnnn1CC1CCCO1)N(Cc1cc2cc(C)cc(C)c2[nH]c1=O)C1CCCC1` (configuration not stated) stands inactive: 107%; under `O=C1OC(C(=O)Nc2ccc(Cl)c(C(F)(F)F)c2)Cc2ccccc21` (configuration not stated), inactive: 84%. For `COc1ccc(-c2noc(-c3ccc(N4CCCCC4C)c([N+](=O)[O-])c3)n2)cc1OC` (configuration not stated), the survival is inactive: 124%. In the case of `COc1ccccc1CNC(=O)c1ccc(N2Cc3cccc(OC)c3Oc3ncccc32)s1` it was inactive: 71%. In the case of `CC(C)(C)OC(=O)N1CCC(c2nnc(SCc3ccccc3)o2)CC1` it was inactive: 83%; in that of `Cc1cc(NC(=O)COc2ccccc2)cc(-c2nc3ccccc3o2)c1O`, inactive: 87%. Under `CCCN1C(=O)C(Cc2nc3ccccc3c(=O)n2-c2cccc(C)c2)c2ccccc21` (configuration not stated) stands inactive: 40%. Turning to `Cn1ncc(C(=O)N2CCN(c3ccc(F)cc3)CC2)c1C1CCN(C(=O)OC(C)(C)C)CC1`, the survival is inactive: 66%.

In the case of `O=C(Cc1c(F)cccc1Cl)NCCCn1ccnc1`, the survival was inactive: 109%. In the case of `CCCn1c(-c2cccc(Br)c2)nc2ccccc21` it was active: 3%; in that of `Cc1cc(C)cc(NC(=O)C2CCCN2S(=O)(=O)c2cccc3nsnc23)c1` (configuration not stated), inactive: 71%. Consider `CC(=O)Nc1cc(-c2nc3ccccc3s2)ccc1C`, for which the survival is inactive: 91%. For the compound `Cc1ccc(C2=CC(c3c(F)cccc3Cl)n3ncnc3N2)cc1C` (configuration not stated), the survival was inactive: 57%. Under `O=C(CSc1nnc2[nH]c(=O)cc(-c3ccccc3)n12)Nc1ccc(F)cc1F` stands inactive: 94%. In the case of `CCn1c(-c2ccc(S(=O)(=O)N3CCOCC3)cc2)csc1=Nc1ccc(C)c(Cl)c1` it was inactive: 71%; in that of `CCOC(=O)c1ccc(CN(Cc2ccccc2C)S(=O)(=O)c2ccc(C(C)(C)C)cc2)cc1`, inactive: 84%. In the case of `COc1cccc(C2C(C(=O)Nc3ccccc3)=C(C)Nc3nc(-c4ccccc4)nn32)c1OC` (configuration not stated) it was inactive: 107%. Take `C=CCNCc1cc2cc(C)cc(C)c2[nH]c1=O`: the survival is inactive: 101%. Under `Cc1ccccc1NC(=O)C(C)Sc1nnc(-c2ccccc2C)o1` (configuration not stated) stands inactive: 100%.

For `Cc1ccc(C(=O)n2nc(C)c(S(=O)(=O)N3CCCCCC3)c2C)cc1`, the survival was inactive: 81%. Regarding `COc1ccc(C)cc1NC(=O)c1ccc2c(c1)CCN2S(=O)(=O)c1ccc(Cl)cc1`, the survival is inactive: 87%. In the case of `Cc1ccc(C)c(S(=O)(=O)n2nnc3ccccc32)c1` it was inactive: 104%; in that of `O=C(Nc1ncn[nH]1)C(F)(F)C(F)F`, inactive: 108%. In the case of `Cc1ccc(C)c(CN2CCC(CNC(=O)c3cc4ccc5cccnc5c4[nH]3)CC2)c1` it was inactive: 84%; in that of `COc1ccc(CNc2nc3c(c(=O)n(C)c(=O)n3C)n2Cc2ccccc2Cl)cc1`, inactive: 83%. Take `Cc1cccc(-c2noc(-c3ccc(N4CCN(C)CC4)c([N+](=O)[O-])c3)n2)c1`: the survival is active: -3%.

Take `CCOc1cc(S(=O)(=O)N(CC)CC)c(OCC)cc1-n1cnnn1`: the survival is inactive: 99%. Under `Cc1ccc(Cn2c(C)c(CNCCCc3ccccc3)c(C(=O)O)c2C)cc1` stands inactive: 115%; under `CCCc1nc(C(C#N)c2ccc(F)cc2)c2nnn(Cc3ccccc3)c2n1` (configuration not stated), inactive: 109%; under `CC1CCN(S(=O)(=O)c2ccc3c(c2)CCC(=O)N3CC(=O)Nc2cccc(C#N)c2)CC1`, inactive: 70%. In the case of `Cc1ccc2nc(Cl)c(CO)cc2c1` it was inactive: 111%; in that of `CCCCNC(=O)CSc1nnc(C)c2c(C)n(-c3ccccc3)nc12`, inactive: 70%; in that of `Cc1ccc(C2=NN(CC(=O)NCCN(CC(C)C)CC(C)C)C(=O)CC2)cc1`, inactive: 129%. In the case of `CC(C)NC(=O)C1CCN(c2nc3ccccc3nc2C(F)(F)F)CC1` it was inactive: 95%; in that of `Cc1ccc(-c2noc(CNC(=O)c3ccccc3)n2)cc1`, inactive: 83%; in that of `CCOC(=O)C1Cc2ccccc2CN1` (configuration not stated), inactive: 100%. For the compound `CCC1CN(C(=O)N2CCC(C(=O)NCc3ccccc3C)CC2)c2ccccc2O1` (configuration not stated), the survival is inactive: 87%. Under `Cc1ccc(-c2cc3c(n2-c2ccc(C)cc2)CC(C)(C)CC3=O)cc1` stands inactive: 69%. For the compound `O=C(NCc1ccccc1)c1ccc(CSc2nc3cccnc3n2Cc2ccccc2F)cc1`, the survival was inactive: 95%. Consider `O=C(NCCOCCn1c(=O)oc2ccccc21)Nc1ccc(F)cc1`, for which the survival is inactive: 88%. Under `COc1ccc(OCC(=O)Nc2cccc(-c3nc4ccccc4s3)c2C)cc1` stands inactive: 118%; under `COc1ccccc1OCC(=O)Nc1nc(-c2ccc(Br)cc2)ns1`, inactive: 79%; under `Cc1nc(N2CCCC2)ncc1C(=O)Nc1ccc(F)cc1F`, inactive: 138%. Under `Cc1cc2c(cc1S(=O)(=O)N(CCN(C)C)Cc1ccco1)OCC(=O)N2` stands inactive: 88%; under `Cc1ccc(S(=O)(=O)c2cn(C)c3cc(N4CCCC(C)C4)c(F)cc3c2=O)c(C)c1` (configuration not stated), inactive: 81%; under `CC(C)N(Cc1ccccc1)C(=O)CCS(=O)(=O)c1ccc2c(c1)oc(=O)n2C`, inactive: 124%. For the compound `Cc1ccc(NC(=O)C2CCN(S(=O)(=O)c3c(C)noc3/C=C/c3ccco3)CC2)cc1C`, the survival is inactive: 79%.

As for `Cc1ccc(CN2CCc3nc(N4CCN(C)CC4)ncc3C2)s1`, the survival is inactive: 99%.

Consider `CC(C)(C)CC(=O)NC1CC(=O)N(c2ccc3c(c2)OCCO3)C1` (configuration not stated), for which the survival was inactive: 124%. Under `O=C1OC(Nc2ccc3ncccc3c2)c2ccccc21` (configuration not stated) stands inactive: 85%; under `O=C(c1ccc2c(c1)N(Cc1ccccc1F)C(=O)c1ccccc1S2=O)N1CCOCC1` (configuration not stated), inactive: 86%; under `Cc1c(Cl)cccc1NC(=O)Cn1cnc2nc3c(cc2c1=O)CCCC3`, inactive: 131%. Consider `Cc1ccc(-n2ncc3c(N4CCC(Cc5ccccc5)CC4)ncnc32)cc1`, for which the survival is inactive: 70%. In the case of `O=C(NCC1CCCO1)c1c[nH]c2ccc(S(=O)(=O)Nc3cccc(C(F)(F)F)c3)cc2c1=O` (configuration not stated) it was inactive: 74%; in that of `CCc1ccc(C(=O)c2cn(CC(=O)Nc3ccc(C)c(C)c3)c3ccccc3c2=O)cc1`, inactive: 135%. Under `Cc1ccc2c(c1)cc1c(=O)n(CC(=O)N3CCCCC3)nc(C)n12` stands inactive: 79%; under `Cc1cccc(N(C)C(=O)CSc2nc3ncccc3o2)c1`, inactive: 63%. In the case of `CN(Cc1ccccc1)S(=O)(=O)c1nnc(NC(=O)c2ccccc2)s1` it was inactive: 35%. As to `COc1ccc2c(c1)c1c(c(=O)n(-c3ccccc3)c(=O)n1CC(=O)Nc1ccc(C)c(C)c1)n2C`, the survival was inactive: 82%. With `N#Cc1ccc(CSc2nc3c(c(=O)[nH]2)CCCC3)cc1`, the survival was inactive: 94%.

Regarding `CC(C)C1CC(c2csc(N)n2)CCO1` (configuration not stated), the survival is inactive: 105%. With `Cc1cccc(N(C)C(=O)CCNS(=O)(=O)c2ccc3c(c2)CCN3C(=O)C2CC2)c1`, the survival was inactive: 78%. In the case of `Cc1sc2nc(SCC(=O)N(CCO)CCO)nc(N)c2c1C` it was inactive: 99%.

As to `COC(=O)CCn1cnc2onc(-c3cc(F)cc(F)c3)c2c1=O`, the survival is inactive: 78%. With `Cc1ccc(C)c(CS(=O)(=O)c2cn(CC(=O)N(C(C)C)C(C)C)c3ccccc23)c1`, the survival is inactive: 77%.

With `CC(C)Sc1ncc(Cl)c(C(=O)Nc2ccc(S(=O)(=O)N(C)c3ccccc3)cc2)n1`, the survival was inactive: 78%. As for `Fc1ccc2ncc3c(-c4ccccc4)n[nH]c3c2c1`, the survival was inactive: 84%. For `Cn1ncc2c(Nc3cccc(F)c3)ncnc21`, the survival was inactive: 127%. In the case of `O=C(Nc1c(C(=O)Nc2ccccc2F)oc2ccccc12)c1cc2ccccc2o1` it was inactive: 42%. In the case of `COc1cc(NC(=O)CN2CCN(CC(=O)Nc3ccc(F)cc3)CC2)cc(OC)c1` it was inactive: 67%; in that of `COc1cc(C(CC(=O)NCCC(C)C)N2Cc3ccccc3C2=O)cc(OC)c1OC` (configuration not stated), inactive: 128%.

These data come from PubChem BioAssay AID463173 (ICCB-Longwood Screening Facility, Harvard Medical School, 2010).
